These results are taken from patent publication US12551573B2, “Compositions and methods for the targeting of PCSK9” (Scribe Therapeutics Inc., priority 2022, dated 2026).

B1: DOMAIN_3087 (protein, listed as Hylobates sp.)
chain: MAHALVTFRDVAIDFSQKEWECLDTTQRKLYRDVMLENYNNLVSLGYSGSKPDVITLLEQGKEPCMAARDVTGRQYPGLLS
B2: DOMAIN_3586 (protein, listed as Macaca mulatta)
chain: TLLTFRDVAIEFSLEEWKCLDPAQQNLYRDVMLENYRNLFSIGLTVSKPGLITCLEQRKEPWNVKRQEAVDGHPAMSSHVT
B3: DOMAIN_3332 (protein, listed as Hylobates sp.)
chain: IHLTAWPQKSVTFEDVAVYFTQAEWDGLSPAQRTLYRDVMLENYGNVASLGFPLLKPAVISQLEGGGDLGGPSPLAAGTGL
B4: DOMAIN_3782 (protein, listed as Macaca mulatta)
chain: MAHFQGSVTFEDVAIAFSQQEWESLDSSQRGLYRDVMLENYRNLVSMAGHSLSKPHVIALLERWKEPKVTERKDGRRWCTD
B5: DOMAIN_11029 (protein, listed as Mandrillus leucophaeus)
chain: WPESVTFEDVAVYFTQNQWASLDPAQRALYGEVMLENYANVASLVAFPFPKPALISHLERGEAPWGPDPWDTEIPRGISQG
B6: DOMAIN_3300 (protein, listed as Hylobates sp.)
chain: TQPDEDLHLQVEETQLVKESVTFKDVAIDFTLEEWRLMDPTQRNLHKDVMLENYRNLVSLGLAVSKPDMISHLENGKGPWV
B7: DOMAIN_2896 (protein, listed as Hylobates sp.)
chain: MGLLTFRDVAIEFSLEEWQCLDTAQQNLYRNVMLENYRNLAFLGIAVSKPDLITCLEQGKEPWNMKRHEMVDEPPGVCPHF
B8: DOMAIN_3759 (protein, listed as Macaca mulatta)
chain: MGLLTFRDVAIEFSLEEWQCLDTAQKNLYRNVMLENYRNLAFLGVAVSKPDLIICLEKDKEPWNMKRHEMVDEPPGLTVSN
B9: DOMAIN_3781 (protein, listed as Macaca mulatta)
chain: MAHFQGSVTFEDVAIAFSQQEWESLDSSQRGLYRDVMLENYRNLVSMGHSLSKPHVIALLERWKEPKVTERKDGRRWCTDL
B10: DOMAIN_3691 (protein, listed as Macaca mulatta)
chain: MDSVAFEDVAVNFTQEEWALLSPSQKNLYRDVMLEAFRNLASVGIQWKDQDTENLYQNLGIKLRHMRAHAGHTRSECGGEW
B11: DOMAIN_3575 (protein, listed as Macaca mulatta)
chain: MSQGSVTFRDVAIDFSQEEWKWLQPAQRDLYRCVMLENYGHLVSLGLSISKPDVVSLLEQGKEPWLGKRNVNRDLFSVSES
B12: DOMAIN_18258 (protein, listed as Physeter macrocephalus)
chain: KEAFVAFGDVAVDFTQEEWRLLSPAQRTLHREVMLETYNHLVSLEIPFSKPKLISQLERGEEPWIEERQRPLGLCPASRPT
B13: DOMAIN_3137 (protein, listed as Hylobates sp.)
chain: MNMEGLVMFQDLSIDFSQEEWECLDAAQKDLYRDVMMENYSSLVSLGLSIPKPDVISLLEQGKEPWMVSRDMLGGWCPDSE
B14: DOMAIN_3123 (protein, listed as Hylobates sp.)
chain: LAPEDHGSSYEGSVSFRDVAIDFSREEWRHLDLSQRNLYRDVMLETYSHLLSVGYQVPEAEVVMLEQGKEPWALQGERPRH
B15: DOMAIN_3344 (protein, listed as Hylobates sp.)
chain: PAQGPGEARPSRKRGRRPRALKFVDVAVYFSPEEWGCLRPAQRALYRDVMRETYGHLGALGCAGPKPALISWLERNTDDWE
B16: DOMAIN_2992 (protein, listed as Hylobates sp.)
chain: MIKSQESLTLEDVAVEFTWEEWQLLGPAQKDLYRDVMLENYSNLVSVGYQASKPDALFKLEQGEPWTVENDSHICPEIKKV
B17: DOMAIN_17358 (protein)
chain: SQSPLTFGDVAVEFSGEEWAWLDSAQRSLHRSVMLENYRNLASLGLCLSKPEMISSLEQRKEPWAVKRKSTRGMHPDSQTL
modifications: source 1..81: note = Bos indicus x Bos taurus
B18: DOMAIN_2962 (protein, listed as Hylobates sp.)
chain: MDSVAFEDVAINFTCEEWALLGPSQKSLYRDVMQETIRNLDCIGMTWQTHDIEEDQYKDLRRNLRCHMVERSCEIKDNSQC
B19: DOMAIN_3602 (protein, listed as Macaca mulatta)
chain: MAPGLLTTREEALMAFRDVAVAFTQKEWKLLSSAQRTLYREVMLENYSHLVSLGIAFSKPKLIEQLEQGNEPWREENEHLL
B20: DOMAIN_3661 (protein, listed as Macaca mulatta)
chain: MDSVAFEDVAVTFTQEEWALLDPSQKTLYRDVMQETFRNLASVGKKWKAQNMYVEYENLKRNLRTFVGERLFESKEGHQHG
B21: DOMAIN_2943 (protein, listed as Hylobates sp.)
chain: MMFQDSVAFEDVAVTFTQEEWALLDPSQKNLYRDVMQETFKNLASIGKKWKAQNIYVEYKNLRRNLRIVGERLFESKEGHQ
B22: DOMAIN_3760 (protein, listed as Macaca mulatta)
chain: MEPLKFRDVAVEFSLEEWQCLDTIQQNLYRNVMLENYRNLVFLGIAVSKPDLITCLEQEKEPWTRKRHRMVAKPVTCSHFA
B23: DOMAIN_3000 (protein, listed as Hylobates sp.)
chain: MINAQELLTLEDVTVEFTWEEWQLLDPFQKDLYRDVMLEIYSNLVSIGYQVSKPDALSKLERGEEPWTVEDERHSQICPEN
B24: DOMAIN_2904 (protein, listed as Hylobates sp.)
chain: MSGPPGSLEMEPLQFRDVAVEFSLEEWHCLDTAQQNLYRDVMLENYRHLVFLGIVVSKPDLITCLEQGKKPLTMKRHEMIA
B25: DOMAIN_3092 (protein, listed as Hylobates sp.)
chain: MIEYQIPVSFKDVVVGFTQEEWHQLSPAQRALYRDVMLETYSNLVSVGYEGTKPDVILRLEQEEAPWIGEAACLGCHCWED
B26: DOMAIN_3096 (protein, listed as Hylobates sp.)
chain: MIEYQIPVSFKDVVVGFTQEEWHQLSPAQRALYRDVMLETYSNLVSVGYEGTKPDVILRLEQEEAPWIGEAACLGCHCWGK
B27: DOMAIN_3094 (protein, listed as Hylobates sp.)
chain: MIEYQIPVSFKDVVVGFTQEEWHQLSPAQRALYRDVMLETYSNLVSVGYEGTKPDVILRLEQEEAPWIGEAACLGCHCWGI
B28: DOMAIN_3585 (protein, listed as Macaca mulatta)
chain: MAAVSPTTRCQESVTFEDVAVVFTDEEWSHLVPIQRDLYKEVMLENYNSIVSLGLPVPQPDVIFQLKRGDKPWVVDLHGSE
B29: DOMAIN_3373 (protein, listed as Hylobates sp.)
chain: ADITLMSQAQDSRSILFQESVTFEDVAVNFTNREWQCLTYAQRHLYKDVMLENYRNMASLGFPFPKPPLISHLEREVDPCV
B30: DOMAIN_2994 (protein, listed as Hylobates sp.)
chain: MMQAQESLTLEDVAVDFTWEEWQFLSPAQKDLYRDVMLENYSNLVAVGYQARKPDALSKLERGEEPCTTEDEIYARICSDS
B31: DOMAIN_2908 (protein, listed as Hylobates sp.)
chain: MGPLQFRDVAIEFSLEEWHCLDTAQRNLYRNVMLENYSNLVFLGIVVSKPDLITRLEQGKKPLTMKRHEMVANPSGPGVFV
B32: DOMAIN_2997 (protein, listed as Hylobates sp.)
chain: MESLTLEDVAVDFTWEEWQFLSPAQKDLYRDVMLENYSNLVAVGYQARKPDALSKLERGEEPCTTEDEIYARICSDSGGAS
B33: DOMAIN_3557 (protein, listed as Macaca mulatta)
chain: MAHMAFRDVAVDFTQDEWRLLSPAQRTLYREVMLENYSNLVSLGISFSKPELITQLEQGKETWREEKNCSPATCPADPEPE
B34: DOMAIN_3335 (protein, listed as Hylobates sp.)
chain: MAAMPLKARYQEMVTFEDVAVHFTKTEWTGLSPAQRALYRSVMLENFGNLTALGYPVPKPALISLLEGGDMDWGLEAQDDP
B35: DOMAIN_3337 (protein, listed as Hylobates sp.)
chain: MPLKARYQEMVTFEDVAVHFTKTEWTGLSPAQRALYRSVMLENFGNLTALGYPVPKPALISLLEGGDMDWGLEAQDDPPAE
B36: DOMAIN_3336 (protein, listed as Hylobates sp.)
chain: MVTFEDVAVHFTKTEWTGLSPAQRALYRSVMLENFGNLTALGYPVPKPALISLLEGGDMDWGLEAQDDPPAERTKNVCKVI

For the assay, the system named is HBEGF locus. Type of assay: cell-based, human. Conditions: high-throughput screen of dXR repression of the HBEGF gene; change in abundance of each domain in the library before and after diphtheria toxin selection.
As for B1, the “Log2 (fold change)” value is 2.7999.

For B2, the “Log2 (fold change)” value was 2.365.

With B3, the “Log2 (fold change)” value is listed as 2.8786.

As for B4, the “Log2 (fold change)” value amounted to 2.3058.

Turning to B5, the “Log2 (fold change)” value amounted to 3.5748.

For B6, the “Log2 (fold change)” value was 3.0127.

Consider B7, for which the “Log2 (fold change)” value turned out to be 2.7253.

Regarding B8, the “Log2 (fold change)” value came to 2.5324.

Turning to B9, the “Log2 (fold change)” value stood at 2.9317.

Regarding B10, the “Log2 (fold change)” value was 2.8393.

Turning to B11, the “Log2 (fold change)” value worked out at 3.7842.

For the molecule B12, the “Log2 (fold change)” value is listed as 3.75.

As to B13, the “Log2 (fold change)” value was 2.8303.

On to B14, for which the “Log2 (fold change)” value came out at 3.1293.

In the case of B15, the “Log2 (fold change)” value is given as 3.2218.

In the case of B16, the “Log2 (fold change)” value was 2.6341.

Consider B17, for which the “Log2 (fold change)” value is on record as 4.9878.

As to B18, the “Log2 (fold change)” value was found to be 2.1784.

Consider B19, for which the “Log2 (fold change)” value was found to be 2.0444.

With B20, the “Log2 (fold change)” value was found to be 2.4083.

For the molecule B21, the “Log2 (fold change)” value stood at 2.9574.

Take B22: the “Log2 (fold change)” value turned out to be 2.7025.

As for B23, the “Log2 (fold change)” value amounted to 2.9522.

In the case of B24, the “Log2 (fold change)” value is listed as 2.8035.

In the case of B25, the “Log2 (fold change)” value is on record as 3.1954.

As for B26, the “Log2 (fold change)” value was 3.3962.

As for B27, the “Log2 (fold change)” value came to 3.7195.

Consider B28, for which the “Log2 (fold change)” value is listed as 2.4981.

As to B29, the “Log2 (fold change)” value worked out at 3.0768.

Turning to B30, the “Log2 (fold change)” value is recorded as 3.1921.

Consider B31, for which the “Log2 (fold change)” value is 2.6452.

In the case of B32, the “Log2 (fold change)” value stood at 2.9911.

As for B33, the “Log2 (fold change)” value is 2.4416.

With B34, the “Log2 (fold change)” value was 4.0001.

With B35, the “Log2 (fold change)” value is listed as 2.9398.

In the case of B36, the “Log2 (fold change)” value is reported as 3.5946.
